Reference: PubChem BioAssay AID504937 (National Center for Advancing Translational Sciences (NCATS), 2011)
Among all 340,000 compounds or so, about 20 (0.006%) were called active. Calls follow the shape of the dose curve; as a rule, active = well fitted inhibition curve with a large enough effect; inconclusive = small, poorly fitted or top-dose-only effect; inactive = no such curve, though single readings can be large or run the other way. Inconclusive means that the source gave no clear call. Potencies of inconclusive entries are doubtful fits and often do not repeat.

Biological target: Sphingomyelin phosphodiesterase (Homo sapiens) (UniProt P17405)
Assay: Inhibitors of Secretory Acid Sphingomyelinase (S-ASM): qHTS
Conditions: placental ASM, HMU-PC fluorogenic substrate (series up to 57.5 µM), 60 min; series mostly up to 57.5 µM
Source text: Atherosclerosis is the underlying process for cardiovascular disease and thus is a major contributor to disease burden in the population. […] Thus, selective small molecule inhibitors of S-ASM should block LDL modification and reduce aortic LDL retention and may serve as new agents for the treatment of atherosclerosis. In a collaboration between National Heart, Lung, and Blood Institute and the NCGC a high-throughput amenable screen was developed to identify potent and selective small molecule inhibitors of S-ASM. This enzymatic, fluorescent screen uses an ASM enzyme preparation derived from human placenta and was tested against the NIH Molecular Libraries Small Molecule Repository (MLSMR). NIH Chemical Genomics Center [NCGC] NIH Molecular Libraries Probe Centers Network [MLPCN] MLPCN Grant: MH093173-01 Assay Submitter (PI): Alan Remaley, National Heart, Lung, and Blood Institute and Wei Zhen, NIH Chemical Genomics Center
Two microliters of ASM enzyme (1:150 dilution from stock) are dispensed in 1536-well plate. 23 nL of compound and control are pinned into assay plate using the Kalypsys pintool. The plates are then incubated for 10 minutes at ambient room temperature. Then, 2 uL of the flurogenic substrate, HMU-PC0, (9 uM final) are added to the plate. An incubation for 60 minutes takes place at 37 masculineC. After that, 4 uL of stop solution is added to raise the pH to 10 to end the kinetic reaction. Plate is read on ViewLux, with detection set at Ex = 386 (10) nm and Em = 447 (10) nm.
Potency is read from the fitted curve at half-maximal effect; tags tell the direction and shape of the fitted curve.

Chain of UniProt P17405 (P17405 whole entry, looked up): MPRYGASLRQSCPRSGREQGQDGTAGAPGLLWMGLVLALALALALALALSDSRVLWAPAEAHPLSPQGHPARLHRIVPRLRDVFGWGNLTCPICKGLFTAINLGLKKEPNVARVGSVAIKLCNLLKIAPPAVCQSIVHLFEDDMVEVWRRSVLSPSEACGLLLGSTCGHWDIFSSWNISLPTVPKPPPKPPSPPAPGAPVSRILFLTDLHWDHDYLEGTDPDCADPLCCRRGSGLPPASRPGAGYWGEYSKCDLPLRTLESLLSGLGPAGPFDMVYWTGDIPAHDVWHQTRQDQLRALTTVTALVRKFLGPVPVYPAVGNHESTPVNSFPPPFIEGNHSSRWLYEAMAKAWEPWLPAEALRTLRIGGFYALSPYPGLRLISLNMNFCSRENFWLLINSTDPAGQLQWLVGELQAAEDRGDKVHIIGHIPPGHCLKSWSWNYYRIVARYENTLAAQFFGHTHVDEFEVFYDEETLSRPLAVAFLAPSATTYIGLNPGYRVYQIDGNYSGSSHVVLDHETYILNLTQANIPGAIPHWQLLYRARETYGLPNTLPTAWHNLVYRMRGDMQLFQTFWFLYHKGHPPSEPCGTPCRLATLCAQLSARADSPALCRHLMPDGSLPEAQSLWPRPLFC

Which Potency does the source give for `COc1cc(/C=C2\C(=N)N3N=C(S(C)(=O)=O)SC3=NC2=O)ccc1OC(=O)c1cccs1` here?
Its Potency is inconclusive: 20 µM [inhibitor, partial curve, poor fit].

With `O=C(NN1C(=O)/C(=C/c2ccc(O)cc2)SC1=S)c1ccccc1O` as the compound, how does the Potency read?
The Potency was inconclusive: 44.7 µM [inhibitor, partial curve].

How did the Potency turn out when `Cc1ccc(S(=O)(=O)Oc2ccc(/C=C3\C(=N)N4N=C(S(C)(=O)=O)SC4=NC3=O)cc2)cc1` was run?
The Potency was inconclusive: 25.1 µM [inhibitor, partial curve, poor fit].

How did the Potency turn out when `CS(=O)(=O)C1=NSC2=NC(=O)/C(=C\c3ccc(OC(=O)c4ccco4)c(Br)c3)C(=N)N21` was run?
Its Potency is inconclusive: 22.4 µM [inhibitor, partial curve, poor fit].

With `CCOc1cc(/C=C2/C(=N)N3C(=NC2=O)SN=C3S(=O)(=O)CC)ccc1OC(=O)c1ccco1` as the compound, how does the Potency read?
Its Potency is inconclusive: 17.8 µM [inhibitor, partial curve, poor fit].
